Paper PMC4336329 (PLoS ONE, 2015)
Out of some 310,000 compounds screened, about 2,200 (0.71%) showed an effect of 50% or more. Effects have a minus sign here. This is one part of the list.

What follows are compounds tested against human ether-à-go-go-related gene (hERG) potassium channel (human, UniProt Q12809) (assay: primary screen, population patch clamp on CHO cells stably expressing hERG).
Chain of human ether-à-go-go-related gene (hERG) potassium channel (Q12809 whole entry, looked up): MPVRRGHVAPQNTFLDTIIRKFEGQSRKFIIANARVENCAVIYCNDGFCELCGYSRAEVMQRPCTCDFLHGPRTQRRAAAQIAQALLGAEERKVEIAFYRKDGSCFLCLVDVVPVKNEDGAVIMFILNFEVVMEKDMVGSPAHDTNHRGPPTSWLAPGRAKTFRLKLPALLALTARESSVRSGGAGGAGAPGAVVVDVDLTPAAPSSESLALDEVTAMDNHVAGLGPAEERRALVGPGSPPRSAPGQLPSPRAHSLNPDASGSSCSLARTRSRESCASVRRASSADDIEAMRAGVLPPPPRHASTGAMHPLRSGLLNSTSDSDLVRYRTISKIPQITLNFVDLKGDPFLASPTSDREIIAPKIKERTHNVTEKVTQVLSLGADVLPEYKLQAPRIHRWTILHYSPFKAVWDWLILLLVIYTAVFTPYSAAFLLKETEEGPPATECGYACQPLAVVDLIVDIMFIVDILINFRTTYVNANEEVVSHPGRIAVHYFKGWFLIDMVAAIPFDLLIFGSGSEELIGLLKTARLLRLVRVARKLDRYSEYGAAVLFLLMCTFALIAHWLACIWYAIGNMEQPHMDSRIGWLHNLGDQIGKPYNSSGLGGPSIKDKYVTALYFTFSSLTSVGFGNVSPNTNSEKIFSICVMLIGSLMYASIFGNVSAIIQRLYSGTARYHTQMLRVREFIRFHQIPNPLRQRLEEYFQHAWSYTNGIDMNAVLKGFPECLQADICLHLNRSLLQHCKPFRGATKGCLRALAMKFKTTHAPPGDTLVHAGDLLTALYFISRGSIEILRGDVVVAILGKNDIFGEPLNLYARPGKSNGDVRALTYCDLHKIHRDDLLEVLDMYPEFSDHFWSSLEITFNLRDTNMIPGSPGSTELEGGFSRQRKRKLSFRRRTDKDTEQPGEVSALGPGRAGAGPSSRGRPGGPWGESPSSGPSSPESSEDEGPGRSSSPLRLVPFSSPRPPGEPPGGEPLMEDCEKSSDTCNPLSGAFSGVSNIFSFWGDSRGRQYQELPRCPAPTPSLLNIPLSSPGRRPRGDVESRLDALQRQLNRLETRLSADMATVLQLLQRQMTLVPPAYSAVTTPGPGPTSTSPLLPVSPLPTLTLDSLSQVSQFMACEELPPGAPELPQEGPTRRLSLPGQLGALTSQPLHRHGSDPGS

| Structure (SMILES) | hERG current change (%, negative = inhibition) at 1uM [%] |
| --- | --- |
| CC1(C)SC[C@H](C(=O)Nc2cccc(Cl)c2)N1C=O | 6.92 |
| S=C1N[C@H]2CCCC[C@@H]2N1 | 16.5 |
| CCCCCCCOc1ccc(C2CC(=O)N(C)C2=O)cc1 (stereo not drawn) | 14.4 |
| CN1CCC(=NNC(=O)CSc2ccc(Cl)cc2)CC1 | 7.18 |
| O=C(O)C(=O)O.OCCNCCSc1nc(C2CCCCC2)n(-c2ccccc2Cl)n1 | 2.22 |
| Cc1cc(C)n(C2CCCCC2OC(=O)c2ccccc2F)n1 (stereo not drawn) | 10.6 |
| C=CCSc1nnc(-c2ccccc2NC(C)=O)c(=O)[nH]1 | -3.54 |
| CC(=O)Nc1c(O)c2cccc3c2n(c1=O)CCC3 | 9.36 |
| COc1ccc(CN2C(=O)c3cccnc3C2=O)cc1S(=O)(=O)N(C)Cc1ccco1 | 8.11 |
| CC(=O)N1C(C(=O)O)Cc2c([nH]c3ccccc23)C1(C)C (stereo not drawn) | 15.2 |
| O=C(Nc1cccc2oc(=O)ccc12)c1ccc([N+](=O)[O-])cc1[N+](=O)[O-] | -15.3 |
| COc1ccc(N(CC(=O)Nc2cc(Cl)ccc2C)S(=O)(=O)c2c(C)n[nH]c2C)cc1 | 14.4 |
| CC(Sc1nnc2ccccn12)C(=O)Nc1ccc(Cl)cn1 (stereo not drawn) | 4.55 |
| C/C(Cn1nc([N+](=O)[O-])cc1C)=N\NC(=O)c1cccc(Br)c1 | -2.35 |
| COc1cccc(/C=N\NS(=O)(=O)c2ccccc2)c1OC | 12.6 |
| Cc1ccccc1CC(=O)Nc1ccc(S(=O)(=O)N2CCN(C)CC2)cc1 | 5.26 |
| Cn1c(=O)n(CC(=O)NC2CCCCC2)c(=O)c2ccccc21 | 4.82 |
| CC1CCCC(NC(=O)COC(=O)/C=C/c2ccc3c(c2)OCO3)C1C (stereo not drawn) | 5.74 |
| O=C(CN1CCCCCC1)N/N=C/c1cccc(Cl)c1 | -6.47 |
| COc1ccc(-c2n[nH]c(C)c2-c2ccc(Cl)cc2)c(O)c1OC | 11.1 |
| Cn1c(=O)c(C(=O)CN2CCCCC2)c(N)n(Cc2ccccc2)c1=O | 6.17 |
| CC(=O)O.Cc1ccc(OCCCSc2n[nH]c(N)n2)cc1 | 14.6 |
| COc1ccccc1N(CC(=O)Nc1ccccc1C(=O)N1CCOCC1)S(C)(=O)=O | 17 |

| Structure (SMILES) | hERG current change (%, negative = inhibition) at 1uM [%] |
| --- | --- |
| COc1ccc2[nH]c3c(c2c1)CCN1C(=O)N([C@@H](C)C(=O)NCc2ccccc2OC)C(=O)[C@]31C | 10.2 |
| CCCCNC(=O)CSc1nnc(Cc2ccccc2)n1CC | -1.86 |
| CN(C)Cc1c(O)c(Cl)cc2c3c(c(=O)oc12)CCCC3 | 13.6 |
| CCOC(=O)C1(CCOc2ccccc2)CCN(Cc2ccc(O)cc2)CC1 | -84.8 |
| COc1cc([C@@H]2CC=C(C(=O)O)[C@H](c3cccc(Cl)c3)N2S(=O)(=O)c2ccc(C)cc2)cc(OC)c1OC | 18.4 |
| S=c1[nH]c2ccc3ccccc3c2[nH]1 | 13.3 |
| COC(=O)C1=C(C)NC(=O)/C1=C\c1cc(C)n(-c2cc(C)cc(C)c2)c1C | 9.19 |
| CCCCN1CC(=O)N2[C@H](c3ccc(OC)cc3)[C@@H]3C(=O)N(CC)C(=O)[C@@H]3[C@]2(C)C1=O | 8.13 |
| CCCC(c1nnnn1Cc1ccco1)N1CCN(C(=O)c2ccco2)CC1.Cl (stereo not drawn) | 3.99 |
| O=S(=O)(c1ccc(SCc2ccccc2)nc1)N1CCCCC1 | 11.2 |
| Cc1cccc(N2C(=O)CC(c3ccc(F)cc3)C3=C2COC3=O)c1 (stereo not drawn) | -1.02 |
| CCOC(=O)CSc1ccc2nnc(-c3cccs3)n2n1 | -25.7 |
| CCOc1c2ccc(C(=O)NCc3ccc(C(F)(F)F)cc3C(F)(F)F)cc2nn1C | 1.01 |
| Brc1ccc(CNc2nc3ccccc3n2CCN2CCCCC2)cc1 | 11.1 |
| CC(=O)c1cccc(NC(=O)Nc2ccc(C(=O)N3CCCC3)cc2)c1 | 10.2 |
| CCOC(=O)N/N=C(/C)c1ccc([N+](=O)[O-])o1 | 10.7 |
| N#CCCn1nc(-c2ccc(Br)cc2)cc1Nc1ccccc1NC(=O)C(F)(F)F | 16.1 |
| Cn1ncc2c(=O)[nH]cnc21 | 15.2 |
| O=C(c1cc(COc2cccc3cnccc23)on1)N1CCCC(CCCO)C1 (stereo not drawn) | -9.49 |
| COCc1cc(C)nc(SCc2ccc(F)cc2)c1C#N | 11.7 |
| COc1ccc(C(CNC(=O)CSc2ccccc2C)N(C)C)cc1 (stereo not drawn) | 14.6 |
| COC(=O)[C@H](C)NC(=O)NCc1ccco1 | 3.77 |
| O=C(CSc1nnc(-c2ccc(S(=O)(=O)N3CCOCC3)cc2)o1)c1ccccc1F | 6.24 |

| Structure (SMILES) | hERG current change (%, negative = inhibition) at 1uM [%] |
| --- | --- |
| Cc1noc(C)c1C(=O)OCC(=O)N1CCN(S(=O)(=O)c2ccc3ccccc3c2)CC1 | -0.987 |
| COc1ccccc1NC(=O)c1ccccc1Nc1ccccc1 | 13.8 |
| Cc1cc2cc(CN(C(=O)C3CC3)C3CCCC3)c3nnnn3c2cc1C | 5.24 |
| c1ccc(CCNc2ncnc3scc(C4COc5ccccc5O4)c23)cc1 (stereo not drawn) | 15 |
| CCc1ccc(Nc2nnc(SCC(=O)Nc3sccc3C(N)=O)s2)cc1 | 12.1 |
| CC(=O)Nc1ccc(S(=O)(=O)Nc2ccc3c(c2)OCCO3)cc1 | 12.8 |
| CCCCOc1ccc(CSc2nncn2N)cc1 | 4.79 |
| CC1CCN(S(=O)(=O)c2cccc(C(N)=O)c2)CC1 | -4.37 |
| Nc1nnc(-c2ccc(F)cc2)s1 | 0.523 |
| Cc1ccc(NC(=O)C2=C(O)c3sccc3N(C)S2(=O)=O)cc1 | 18.9 |
| COc1ccc(CCNC(=O)c2ccc(CN3CCC(Cc4ccccc4)CC3)cc2)cc1 | 18.2 |
| O=C(Nc1ccc(Cl)cc1)Nc1csc([N+](=O)[O-])c1 | 15.3 |
| O=c1nc(/C=C/c2cc([N+](=O)[O-])ccc2Cl)cc(C(F)(F)F)[nH]1 | 9.45 |
| S=C(NCc1ccco1)N1CCN(C/C=C/c2ccccc2)CC1 | -5.33 |
| Cc1nnc(SCC(=O)NNC(=O)c2ccc(Br)cc2)n1C | 31.8 |
| COc1ccc(S(=O)(=O)NC2CCCCC2)cc1C(=O)N1CCCCC1 | 0.2 |
| O=C1c2oc3ccc(F)cc3c(=O)c2C(c2cccc(O)c2)N1CCCN1CCOCC1 (stereo not drawn) | 9.73 |
| Cc1cc2[nH]c(=O)c(=O)[nH]c2cc1S(=O)(=O)Nc1ccccc1F | 3.1 |
| COc1ccc(OC)c(NC(=S)NCc2cccs2)c1 | -2.84 |
| O=C(O)C1C2CCCCC2=C2CCCCC2C1C(=O)c1ccccc1 (stereo not drawn) | 9.67 |
| O=C(NCCc1ccc(Cl)cc1)c1ncn[nH]1 | 10.5 |
| Cc1ccc(O)c(C(=O)c2cc(C#N)c(=O)n(-c3c(C)n(C)n(-c4ccccc4)c3=O)c2)c1 | 6.74 |
| COc1cccc(C(=O)O/N=C(\N)c2ccccn2)c1 | 3.87 |

| Structure (SMILES) | hERG current change (%, negative = inhibition) at 1uM [%] |
| --- | --- |
| COc1ccc(OCCN2CCN(C(=O)c3ccc(OC)c(OC)c3)CC2)cc1 | -35.6 |
| O=S(=O)(c1cccc(C(F)(F)F)c1)N1CCC(c2cc(-c3cccc4ccccc34)n[nH]2)CC1 | 11.5 |
| Nc1nc(CN2CCN(Cc3ccccc3)CC2)nc(Nc2ccccc2)n1 | -56.3 |
| CCOc1ccccc1N(CC(=O)NCC1CCCO1)C(=O)CNS(=O)(=O)c1ccccc1 (stereo not drawn) | 9.45 |
| COc1cccc(NC2=NC3(CCCCC3)N=C(N)N2)c1 | 15.1 |
| Cc1nn(CC(=O)Nc2ccncc2)c(C)c1[N+](=O)[O-] | 8.43 |
| Br.CCOCc1cn(CC(=O)c2ccc(Cl)cc2)c(C)nc1=N | 12.1 |
| O=C(Nc1nnc(S(=O)(=O)N2CCOCC2)s1)c1ccc(F)cc1 | 6.29 |
| CCc1ccccc1NC(=O)Cn1nc(C(F)(F)F)cc1C1CC1 | 17.5 |
| Cc1csc(NC(=O)CCSCCc2ccccn2)n1 | 0.214 |
| Cc1ccc(S(=O)(=O)NCC(=O)N(CC(=O)NC(C)(C)C)Cc2cccs2)cc1 | 7.98 |
| O=C(CN1CCN(c2ccccn2)CC1)Nc1cc(C(F)(F)F)ccc1Cl | 5.73 |
| O=C1C2CC=CCC2C(=O)N1CNc1ccccc1 (stereo not drawn) | 12.3 |
| CCc1cccc(NC(=S)N(CCOC)C2CCN(C(C)=O)CC2)c1 | 7.82 |
| Cc1ccc(-c2cnn(-c3ccccc3)c2N)cc1 | 8.75 |
| C=CCNC(=O)c1onc(CSc2ccccc2C)c1C(=O)O | -10.5 |
| CCOC(=O)C1=C(N)Oc2cc(O)ccc2C1c1ccccc1 (stereo not drawn) | 9.31 |
| Cc1nc2ccc(NS(=O)(=O)c3ccccc3Cl)cc2s1 | 7.78 |
| COc1ccc(N2CCN(C(=O)COc3cccc4ccccc34)CC2)cc1 | -15.6 |
| OC12CCCCC1C(c1ccccc1)NCC2 (stereo not drawn) | 12 |
| COc1ccc(/C=N/Nc2nc(Nc3ccccc3)nc(N3CCCC3)n2)cc1[N+](=O)[O-] | 6.26 |
